Data taken from PubChem BioAssay AID652104 (National Center for Advancing Translational Sciences (NCATS), 2013).
In all, about 410,000 compounds went through this assay and about 7,200 (1.8%) were called active. This list was built around the results that the source calls inconclusive (neither active nor inactive); the mix of calls is not that of the screen. Calls come from the whole dose curve; as a rule, active = well fitted activation curve with a large enough effect; inconclusive = small, poorly fitted or top-dose-only effect, or another doubt; inactive = no such curve, though single readings can be large or run the other way. Potencies of inconclusive entries are left out as doubtful fits.

assay: qHTS of TDP-43 Inhibitors; conditions: TDP-43 expressing yeast growth rescue, BacTiter-Glo, 24 h; series mostly up to 46.1 µM; note: nearly all actives have a fitted effect of over 50% in size
Procedure, shortened: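 Galactose-induced TDP-43 yeast, OD600=0.02, compound pinned; 24 hr, 30 deg C; BacTiter-Glo luminescence for growth. Inhibitors of TDP-43 toxicity read as activators.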
Potency is the fitted concentration of half-maximal effect; tags give direction and shape of the fitted curve.

| SMILES | Potency |
| --- | --- |
| COc1ccc(-c2c(-c3ccsc3)oc3ccc(N4CCOCC4)cc23)cc1 | inconclusive [activator, single point] |
| COc1ccc(CNC(=S)Nc2ccccc2F)cc1 | inconclusive [activator, partial curve, poor fit] |
| COc1ccc(Cl)cc1NC(=O)CSc1nc(=O)[nH]c2c1CCCC2 | inactive |
| CC1=C(C(=O)N2CCOCC2)C(c2ccccc2F)C2=C(CC(C)(C)CC2=O)N1 (configuration not stated) | inactive |
| CC1/C(=C\c2ccc(Cl)cc2)C(=O)C2CC1C2(C)C (configuration not stated) | inconclusive [activator, single point] |
| CCCc1nc2c(C)cc(-c3nc4ccccc4n3C)cc2n1Cc1ccc(-c2ccccc2C(=O)O)cc1 | inconclusive [activator, full curve, poor fit] |
| CC1=C(C(N)=O)C(c2cccc(C)c2)n2nc(-c3cccc(C)c3)nc2N1 (configuration not stated) | inconclusive [activator, partial curve, poor fit] |
| c1ccc(OCCNc2ccn3nc(-c4ccco4)cc3n2)cc1 | active: 15.8 µM |
| COc1ccc(-c2noc(CCCC(=O)NCCc3ccccc3)n2)cc1OC | inconclusive [activator, single point] |
| O=C(NNc1ccccc1)Nc1cc(Cl)ccc1Cl | inconclusive [activator, single point] |
| CC(C)NC(=O)c1ccc(COc2cccc3ccccc23)o1 | inconclusive [activator, partial curve, poor fit] |
| CC(C)NC(=O)C(c1ccccc1)N1Cc2ccccc2C1=O (configuration not stated) | inactive |
| COc1ccc(NC(=O)C2(C)Cc3c(-c4ccc5c(c4)OCO5)ccnc3O2)cn1 (configuration not stated) | inconclusive [activator, partial curve, poor fit] |
| COc1ccc(N2CCn3c2nc2c3c(=O)n(CCCc3ccccc3)c(=O)n2C)c(OC)c1 | inconclusive [activator, full curve] |
| CSc1ccccc1NC(=S)NCc1ccc(Cl)cc1 | inconclusive [activator, single point] |
| CCCCN1C(=O)C(CC(=O)NCC2CCCCC2)CC(C(=O)N2CCCCCC2)=C1C (configuration not stated) | inconclusive [activator, full curve, poor fit] |
| O=C(N/N=C/c1cc2c(cc1Br)OCO2)C1COc2ccccc2O1 (configuration not stated) | inconclusive [activator, partial curve] |
| Cc1noc(C)c1COc1ccccc1C(=O)N1CCN(c2cccc(C(F)(F)F)c2)CC1 | inconclusive [activator, partial curve] |
| Cc1ccc(NC(=O)c2cncc(Br)c2)c(O)c1 | inconclusive [activator, single point] |
| CCn1c(SCc2ccc(F)cc2Cl)nc(=O)c2c(C(=O)OC)cc(C3CC3)nc21 | inconclusive [activator, single point] |
| Cc1csc2ncnc(N3CCN(C(=S)Nc4ccc(C(F)(F)F)cc4)CC3)c12 | active: 12.6 µM |

| SMILES | Potency |
| --- | --- |
| Fc1ccccc1NC(=S)NN(Cc1ccccc1)c1ccccc1 | inconclusive [activator, single point] |
| Cc1ccc(CNC(=O)c2cc(-c3ccc(C)cc3)nc3n[nH]c(-c4ccc(F)cc4)c23)cc1 | inconclusive [activator, full curve, poor fit] |
| c1ccc(-c2cc3c(-n4cccc4)ncnc3o2)cc1 | inactive |
| COc1nc(-c2ccccc2)c2cc(Br)ccc2n1 | inconclusive [activator, single point] |
| CC(=O)c1c(COC(=O)c2cccc(C)c2)nc2ccccc2[n+]1[O-] | inconclusive [activator, partial curve] |
| CC(=O)/C(=C\N(C)C)Sc1ccc(Cl)cc1 | active: 22.4 µM |
| NC(=S)c1cnn2c(-c3cccc(C(F)(F)F)c3)ccnc12 | inconclusive [activator, partial curve] |
| COC(=O)c1c(C)oc2ccc(N(C(=O)c3ccncc3)S(=O)(=O)c3ccc4ccccc4c3)cc12 | inconclusive [activator, single point] |
| O=C1ON=C(c2cccc([N+](=O)[O-])c2)/C1=C/c1ccc(O)cc1 | inconclusive [activator, single point] |
| CC(C)CCCCCCCCCCCCC(=O)NCC(=O)NC1C(C)OC(Nc2ncnc3nc[nH]c23)C(O)C1O (configuration not stated) | inconclusive [activator, partial curve] |
| CCn1nc(C(=O)NCC2COc3ccccc3O2)c2ccccc2c1=O (configuration not stated) | inconclusive [activator, single point] |
| CC(=O)c1ccc(-c2ccc(C(=O)N3CCCc4ccccc43)o2)cc1 | inconclusive [activator, single point] |
| Cc1ccccc1CNC(=O)Nc1cccs1 | inactive |
| COc1ccc(N2CC(NC(=O)c3ccco3)CC2=O)cc1OC (configuration not stated) | inactive |
| Cc1cccc(C)c1NC(=O)C(C)c1ccc(-c2ccccc2)c(F)c1 (configuration not stated) | inconclusive [activator, partial curve] |
| O=C(COC(=O)C1(c2ccccc2F)CCCC1)NC1CCS(=O)(=O)C1 (configuration not stated) | inactive |
| Cc1cc(C)nc(N/N=C/C=C/c2ccccc2)n1 | inconclusive [activator, partial curve] |
| COc1ccc(C(=O)Oc2cc(/C=N/NC(N)=S)ccc2OC)cc1 | inconclusive [activator, single point] |
| CCCCCCCCN1C(=O)[C@H](CC(=O)NCc2ccc(OC)c(OC)c2)C[C@@]2(C(=O)OCC)CCCC=C12 | inconclusive [activator, single point] |
| Cc1cc(C)c(S(=O)(=O)NCC23C=CC(O2)C2C(=O)N(c4ccccc4)C(=O)C23)c(C)c1 (configuration not stated) | inconclusive [activator, partial curve] |
| Cc1ccccc1OCC(=O)Nc1ccc2c(c1)OCCO2 | inconclusive [activator, single point] |
